The whole screen tested about 310,000 compounds, of which about 14,000 (4.5%) showed an effect of 50% or more. Effects have a minus sign here. This is one part of the list.
target: human ether-à-go-go-related gene (hERG) potassium channel (human, UniProt Q12809); assay: primary screen, population patch clamp on CHO cells stably expressing hERG
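Further: peak tail current of the secondary pulse compared with the same well before compound.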

human ether-à-go-go-related gene (hERG) potassium channel, sequence (Q12809 whole entry, looked up): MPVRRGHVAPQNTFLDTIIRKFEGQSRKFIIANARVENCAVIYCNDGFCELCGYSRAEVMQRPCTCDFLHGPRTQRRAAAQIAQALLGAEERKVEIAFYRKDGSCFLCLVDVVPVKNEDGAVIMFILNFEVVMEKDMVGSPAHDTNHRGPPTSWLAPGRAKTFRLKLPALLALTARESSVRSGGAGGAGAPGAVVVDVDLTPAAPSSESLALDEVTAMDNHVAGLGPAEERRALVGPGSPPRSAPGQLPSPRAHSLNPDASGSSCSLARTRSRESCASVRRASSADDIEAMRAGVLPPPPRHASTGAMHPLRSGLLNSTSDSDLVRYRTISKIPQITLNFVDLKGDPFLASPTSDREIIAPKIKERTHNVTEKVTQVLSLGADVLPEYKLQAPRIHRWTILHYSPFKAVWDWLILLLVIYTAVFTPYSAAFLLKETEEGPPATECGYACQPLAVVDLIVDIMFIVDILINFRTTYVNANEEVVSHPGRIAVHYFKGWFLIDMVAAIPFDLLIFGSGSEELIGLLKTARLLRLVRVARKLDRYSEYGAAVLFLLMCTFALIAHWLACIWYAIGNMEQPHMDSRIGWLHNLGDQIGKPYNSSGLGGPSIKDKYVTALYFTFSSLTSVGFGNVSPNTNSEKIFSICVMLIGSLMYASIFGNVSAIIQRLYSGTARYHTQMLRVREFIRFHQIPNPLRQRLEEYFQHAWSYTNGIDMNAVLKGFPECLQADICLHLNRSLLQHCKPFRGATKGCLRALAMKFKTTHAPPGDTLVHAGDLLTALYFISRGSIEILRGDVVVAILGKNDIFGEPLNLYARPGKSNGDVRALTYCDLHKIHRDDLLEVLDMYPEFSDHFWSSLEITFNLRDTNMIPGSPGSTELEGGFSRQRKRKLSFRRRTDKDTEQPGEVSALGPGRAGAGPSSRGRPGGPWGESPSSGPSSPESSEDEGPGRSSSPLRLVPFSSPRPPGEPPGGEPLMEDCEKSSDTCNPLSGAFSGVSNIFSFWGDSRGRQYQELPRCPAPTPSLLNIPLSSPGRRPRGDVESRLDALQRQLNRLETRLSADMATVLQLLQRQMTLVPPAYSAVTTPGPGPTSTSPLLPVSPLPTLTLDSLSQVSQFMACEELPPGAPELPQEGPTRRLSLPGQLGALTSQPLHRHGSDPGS

Structure (SMILES)	hERG current change (%, negative = inhibition) at 10uM
O=C(Nc1nnc(-c2ccccc2F)s1)C1CCN(S(=O)(=O)c2ccc(Cl)cc2)CC1	13.7%
CCN(CC)S(=O)(=O)c1cc(NC(=O)COC(=O)CCC(=O)c2cccs2)ccc1C	-12.1%
O=C(CN1CCCCC1)c1c[nH]c2ccccc12	-0.455%
COc1ccccc1NC(=S)N(Cc1ccco1)Cc1cc2ccc(C)c(C)c2[nH]c1=O	-8.05%
CCCCSc1nnc2c(n1)[nH]c1ccccc12	-3.38%
O=C(c1ccc(F)cc1)N(C(=O)c1ccc(F)cc1)c1ncccn1	-6.74%
CN(CCO)C(=O)C(c1ccccc1)c1ccccc1	7.97%
O=C(O)c1ccc(/C=C2\SC(=S)N(NC(=O)c3ccccc3)C2=O)cc1	10.4%
Cn1nccc1C(=O)Nc1ccc(Cl)cc1	5.9%
Cc1ccc2nc(-c3ccncc3)c(Nc3ccccc3)n2c1	0.405%
COCc1nc2sc3c(c2c(=O)[nH]1)CCCC3	12.9%
O/N=C/Cc1[nH]c2ccccc2c1-c1ccccc1	2.59%
CCc1ccccc1NC(=O)CN1CCN(CC(=O)Nc2ccc(-c3ccccc3)cc2)CC1	-53.3%
COc1ccccc1CN=c1c([N+](=O)[O-])nn(-c2ccc3c(c2)OCCO3)n1O	-7.21%
COc1ccc(NS(=O)(=O)c2cc(NC(=O)c3cnccn3)ccc2N2CCCC2)cc1	0.988%
CCOC(=O)c1sc(-c2ccc(C(F)(F)F)cc2)nc1O	12.8%
N#CCc1nn(-c2ccccc2)c(N)c1C#N	5.46%
NS(=O)(=O)c1ccc(CCNC(=O)CN2C(=O)COc3ccc(S(=O)(=O)N4CCCC4)cc32)cc1	10%
COc1ccc(-c2nc3c4ccccc4ccn3c2C=O)cc1	19.6%

Structure (SMILES)	hERG current change (%, negative = inhibition) at 10uM
Cc1cccn2c(=O)c3cc(C(=O)N4CC(C)CC(C)C4)sc3nc12 (stereo not drawn)	7.15%
O=C(CN1C(=O)C(=O)N(Cc2ccccc2)C1=O)Nc1ccc(OC(F)F)cc1	-0.804%
Cc1cc(=O)[nH]c(NCc2ccccc2)n1	5.65%
CN1C(=O)c2ccc(NC(=O)C3CC3)cc2C1=O	6.21%
Nc1nonc1NC(=O)NN=C1CCCCC1	2.13%
Cc1[nH]c2ccccc2c1/C=N/NC(=O)CCC(=O)NCc1ccccc1	10.9%
COc1ccc2[nH]c3c(N4CC(C)OC(C)C4)ncnc3c2c1 (stereo not drawn)	2.56%
COc1cc2cc(C(=O)N/N=C/c3ccc(F)cc3)[nH]c2cc1OC	-3.74%
O=C(NCc1cc(C(F)(F)F)cc(C(F)(F)F)c1)C1CC(c2ccc(C(F)(F)F)cc2)=NO1 (stereo not drawn)	23.2%
Cn1cc(SCC(N)=O)c2ccccc21	1.23%
COc1cccc(C(=O)CN2CCN(S(=O)(=O)c3ccc(Br)cc3)CC2)c1	-6.53%
O=C(Nc1ccccc1F)c1ccn[nH]1	21.6%
Cc1ccc(OC(=O)c2ccc(Br)o2)cc1	2.43%
O=C(O)c1ccc(N2C(=O)c3ccc(C(=O)c4cccc([N+](=O)[O-])c4)cc3C2=O)cc1	3.19%
CCOC(=O)c1cnc2c(OC)cccc2c1N1CCN(c2ccccn2)CC1	-44.5%
Cc1ccc(-n2c(-c3ccncc3)n[nH]c2=S)cc1	19.1%
COc1cc2c(cc1OC)C(C)N(C(=O)c1cc3c(=O)oc4ccc(C)cc4c3s1)CC2 (stereo not drawn)	13.4%
COC(=O)Nc1nn(-c2ccc(Cl)cc2)c(=O)c(C#N)c1C	-25.3%
COc1cccc(/C=N/NC(=S)Nc2cccc(S(=O)(=O)N(C)C)c2)c1	17.7%

Structure (SMILES)	hERG current change (%, negative = inhibition) at 10uM
O=C1CC(N2CCN(Cc3ccccc3)CC2)C(=O)N1 (stereo not drawn)	15.5%
Cc1ccc(S(=O)(=O)/N=C(/Nc2nc(C)cc(C)n2)N2CCOCC2)cc1	15.1%
O=C(CSCc1ccc(F)cc1)Nc1ccccc1	0.958%
CC(=O)c1cn(CC(=O)Nc2ccccc2)c2ccccc12	3.11%
O=C(Cc1c(O)c2ccccc2[nH]c1=O)OC1CCCCC1	15.7%
O=c1c2ccccc2nc(/C=C/c2ccc(O)cc2)n1-c1ccc(O)cc1	1.37%
O=C1N(c2ccc(Cl)c(Cl)c2)CN(Cc2ccccc2)CN1n1cnnc1	-25.9%
O=C(NCC1CCN(C(=O)c2c(F)c(F)c(F)c(F)c2F)CC1)c1c(F)c(F)c(F)c(F)c1F	-30%
CCN1CCCC1CNC(=O)c1cn(CC)c2ccc(S(=O)(=O)N3CCCCCC3)cc2c1=O (stereo not drawn)	-66.5%
CCNC(=O)NC(=O)C(C)OC(=O)c1oc2ccccc2c1CSC1CCCCC1 (stereo not drawn)	1.74%
O=c1[nH]c2ccccc2n2c(-c3ccccc3)nnc12	5.35%
CCOc1ccc(CNC(=O)C2CCN(S(=O)(=O)c3ccc4c(c3)CCCC(=O)N4)CC2)cc1	4.94%
Cc1cccc(NCc2ccccc2OCc2ccccc2F)c1	12.6%
COc1cc(Br)ccc1C1CC(=O)C(C)C(c2ccc(Br)cc2OC)N1 (stereo not drawn)	10.5%
COCCN(C)C(=O)CCc1nnc(Cc2ccc(-c3ccccc3)cc2)o1	-0.986%
CCCc1nc(NCC2CCCO2)c2nnn(Cc3ccccc3)c2n1 (stereo not drawn)	5.29%
COc1cc(OC)cc(-c2cc3nc(C)c(CCC(=O)O)c(C)n3n2)c1	26%
CN1C(=O)c2ccc(NC(=O)CSc3ccccc3)cc2C1=O	5.57%
O=C(COc1ccccc1)N1N=C(c2cccnc2)CC1(O)C(F)(F)F (stereo not drawn)	-10.8%
